About 180 (0.12%) of roughly 150,000 compounds were called active. Inconclusive results, whose numbers are uncertain, are shown with a selection of clear calls. The call rests on the fitted dose curve; in most records, active means well fitted cell-killing curve with a large enough effect; inconclusive means small, poorly fitted or top-dose-only effect, or effect the other way; inactive means flat fitted curve, though single readings scatter. Potencies beside an inconclusive call are fits to weak or partial responses and may not hold up.
Test: GF-AFC viability counterscreen for inhibitors of alpha-synuclein gene (SNCA) expression; further: nearly all actives have a fitted effect of over 30% in size;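 on activity change, negative = cytotoxicity: 0% = DMSO-treated cells and -100% = medium-only wells without cells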
Conditions: HEK-293-SNCA-luc viability, GF-AFC fluorescence, 24 h; activity change, negative = cytotoxicity: at 57.1 µM (top of the series) unless noted
Summary of the method: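 Cytotoxicity counterscreen: after 24 h compound treatment of genome-edited SNCA-luciferase HEK-293 cells, live-cell protease substrate GF-AFC read by fluorescence after 30 min; activity scaled between DMSO (0%) and medium-only (-100%), curves Hill-fitted.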
Potency means the concentration at half of the fitted maximal effect; tags describe the fitted curve by direction and shape.

| SMILES | Potency | activity change, negative = cytotoxicity |
| --- | --- | --- |
| CN1CCCC2(CCN(C(=O)c3sccc3S(N)(=O)=O)C2)C1=O (stereo not drawn) | inactive |  |
| COc1cccc(OCc2nc3c(n2Cc2ccccc2)C(=O)N(Cc2ccccc2C#N)CCN3)c1 | inconclusive: 25.1 µM [cytotoxic, single point] |  |
| COCc1nc(-c2ccc(OC3CN(S(=O)(=O)c4ccccc4C)C3)cc2)no1 | inactive |  |
| CCc1cnc(N2CCC(COc3ccc4c(cnn4CCC(=O)O)c3)CC2)nc1 | inactive |  |
| COc1cc2ncnc(Nc3cccc(Cl)c3F)c2cc1OC(=O)N1CCN(C)C[C@H]1C | inconclusive: 18.9 µM [cytotoxic, partial curve, poor fit] |  |
| O=c1[nH]c2ccccc2n1CCN1CCN(c2cccc(C(F)(F)F)c2)CC1 | inconclusive: 37.7 µM [cytotoxic, single point] |  |
| CC(C)(CC(=O)NCc1ccc(Cl)cc1Cl)CC1=NS(=O)(=O)c2ccccc2N1 | inconclusive: 35.5 µM [cytotoxic, single point] |  |
| CCCCCn1c(=N)c(S(=O)(=O)c2ccc(C)cc2)cc2c(=O)n3cc(C)ccc3nc21 | inconclusive: 7.08 µM [rising, partial curve, poor fit] |  |
| COc1ccc(S(=O)(=O)c2cc3cc(C(C)(C)C)cc(O)c3oc2=O)cc1 | inconclusive: 7.08 µM [rising, single point] |  |
| CC1(C)C(=O)N(CCOc2ccccc2)[C@H]2CN(Cc3ccc4c(c3)CCO4)C[C@H]2[S+]1(=O)[O-] | inactive |  |
| O=c1c2sc3ccccc3c2n(Cc2cccc(C(F)(F)F)c2)c(=O)n1-c1ccccc1 | inconclusive: 15.8 µM [cytotoxic, partial curve, poor fit] |  |
| Cc1ccc(C(=O)N2CCCn3ccnc3C2C(C)C)c(=O)[nH]1 (stereo not drawn) | inactive |  |
| CN1C(=O)Cc2cc(S(=O)(=O)CCC(=O)Nc3ccc(Cl)cc3)ccc21 | inactive |  |
| CCCOc1ccc(CNC(=O)[C@H]2CCC[C@H]2NC(=O)c2ccc(OC)cc2)cc1 | inconclusive: 8.91 µM [cytotoxic, partial curve, poor fit] |  |
| COc1ccc(CC(=O)N2CCc3nc(C(C)C)nc(-c4ccc(OC)cc4)c3CC2)cc1 | inconclusive: 6.31 µM [cytotoxic, full curve] |  |
| N#Cc1cccnc1N1CCCC(CO)(CCCc2ccccc2)C1 (stereo not drawn) | inactive |  |
| CC(=O)Nc1ccc(NC(=O)c2csnn2)cc1 | inactive |  |
| COCCNc1ncccc1-c1noc([C@@H]2CCCN2Cc2cc(OC)c(OC)c(OC)c2)n1 | inactive |  |
| CCNC(=O)Cc1c[nH]c2ncc(-c3cccnc3OC)cc12 | inactive |  |
| O=C(NCCCn1ccnc1)c1ccc(C2CCCNC2)cc1 (stereo not drawn) | inactive |  |
| COc1ccc(NC(=O)c2nc3sccn3c2-c2ccc(C)cc2)cc1 | inconclusive: 35.5 µM [cytotoxic, single point] |  |

| SMILES | Potency | activity change, negative = cytotoxicity |
| --- | --- | --- |
| O=Cc1cccc(-c2cccc(C(F)(F)F)c2)c1 | inactive |  |
| O=C(NCc1nnc2cc(-c3nc(C4CC4)no3)ccn12)c1ccoc1 | inconclusive: 25.1 µM [cytotoxic, single point] |  |
| CSc1cccc(Nc2cc(C(=O)NCCCN(Cc3ccccc3)C(C)C)c3ccccc3n2)c1 | inconclusive: 39.8 µM [cytotoxic, single point] |  |
| CCN1c2cc(C(=O)NCCc3ccccc3)ccc2C(=O)N2CCCCCC21 (stereo not drawn) | inconclusive: 7.08 µM [rising, single point] |  |
| CCCC(=O)N1CCC(Oc2cnc3c(ccn3-c3cncnc3)c2)CC1 | inactive |  |
| CC1=Nc2cc(C(=O)NC3CCCC3)ccc2Sc2ccc(Br)cc21 | inconclusive: 10 µM [cytotoxic, partial curve, poor fit] |  |
| COc1ccc(CCN2C(=O)c3[nH]nc(-c4ccccc4O)c3C2c2ccc(O)c(OC)c2)cc1 (stereo not drawn) | inconclusive: 35.5 µM [cytotoxic, single point] |  |
| COc1cc(NC(=O)c2cc(C3CC3)nc3c2c(C)nn3-c2ccc(C)cc2)cc(OC)c1 | inconclusive: 3.98 µM [cytotoxic, single point] |  |
| Cc1noc(C)c1-c1cc2cc(C(C)C)oc2c(N2CCN(C)CC2)n1 | inconclusive: 44.7 µM [cytotoxic, single point] |  |
| CCc1cccc(OCC(=O)c2ccc3c(c2)N(CC(=O)N(C)Cc2ccccc2)C(=O)CO3)c1 | inconclusive: 20 µM [cytotoxic, partial curve, poor fit] |  |
| COc1ccc(NC(=O)Cn2c(=O)n(-c3cccc(C)c3)c(=O)c3c2cc(C)n3C)cc1OC | inconclusive: 3.55 µM [cytotoxic, partial curve, poor fit] |  |
| COc1ccccc1NC(=O)Cn1c(=O)n(-c2cccc(C)c2)c(=O)c2c1cc(C)n2C | inconclusive: 2 µM [cytotoxic, full curve, poor fit] |  |
| CCN(CC)S(=O)(=O)c1ccc2c(c1)N(CC(=O)Nc1ccc(F)cc1)C(=O)CO2 | inconclusive: 11.2 µM [cytotoxic, partial curve, poor fit] |  |
| CCCCc1oc2ccc(NS(C)(=O)=O)cc2c1C(=O)c1ccc(OCCCN(CCCC)CCCC)cc1 | inconclusive: 21.2 µM [cytotoxic, single point] |  |
| Cc1ccc(NC(=O)c2ccc(CN3CCNCC3)cc2)cc1Nc1nccc(-c2cccnc2)n1 | inconclusive: 11.9 µM [cytotoxic, partial curve, poor fit] |  |
| O=C(CSc1nc2c(oc3ccccc32)c(=O)n1Cc1ccco1)Nc1cccc(Cl)c1 | inconclusive: 1 µM [rising, full curve, poor fit] |  |
| Cc1ccccc1CN1Cc2nc(Nc3ccccc3)ccc2OCC1=O | inconclusive: 28.2 µM [cytotoxic, partial curve, poor fit] |  |
| CN1c2cc(C(=O)NCc3nc4ccccc4n3C)ccc2C(=O)N2CCCCCC21 (stereo not drawn) | inconclusive: 3.55 µM [rising, single point] |  |
| C=CCNC(=O)c1cnn2c1CN([S+](C)(=O)[O-])CC2 | inactive |  |
| CCOc1ccccc1C(=O)Nc1c(NC)c2ccccc2oc1=O | inconclusive: 22.4 µM [cytotoxic, partial curve, poor fit] |  |
| COc1cccc(N2C(=O)NC(=NC3CCCCC3)C23CCN(Cc2cccn2C)C3)c1 (stereo not drawn) | inconclusive: 3.55 µM [cytotoxic, partial curve, poor fit] |  |

| SMILES | Potency | activity change, negative = cytotoxicity |
| --- | --- | --- |
| CCCCNS(=O)(=O)c1ccc2nc(NC(=O)c3cccnc3)sc2c1 | inactive |  |
| COc1ccccc1Oc1c(CCC(=O)NCc2ccccc2)c(C)nn1-c1ccc(F)cc1 | inconclusive: 7.08 µM [cytotoxic, single point] |  |
| CNC(=O)CCn1ncc2cc(OCc3ccccc3-c3ccc(F)c(Cl)c3)ccc21 | inconclusive: 28.2 µM [cytotoxic, partial curve, poor fit] |  |
| O=C(Nc1ccc2c(c1)OCO2)C1CCCN(c2cnn(Cc3ccccc3)c(=O)c2)C1 (stereo not drawn) | inconclusive: 31.6 µM [cytotoxic, partial curve, poor fit] |  |
| COc1ccccc1/C=C/c1nc(C#N)c(N2CCCCCC2)o1 | inconclusive: 17.8 µM [rising, partial curve, poor fit] |  |
| Cc1ccc(-n2nc(C)c([C@@H]3C=C[C@@H](NCc4cccc(C#N)c4)C3)c2C)cc1Cl | inconclusive: 35.5 µM [cytotoxic, partial curve] |  |
| CCCCN(CC)CCNC(=O)c1cc2c(-c3ccc(Cl)cc3)nn(C)c2s1 | inconclusive: 28.2 µM [cytotoxic, single point] |  |
| COc1cccc(CNC(=O)c2ccc(Cn3c(SCc4ccccc4)nc4cccnc43)cc2)c1 | inconclusive: 39.8 µM [cytotoxic, partial curve, poor fit] |  |
| Cc1csc(NC(=O)c2nc3c(o2)CCN(Cc2c(F)cccc2F)CC3)n1 | inactive |  |
| CC(=O)c1cccc(S(=O)(=O)NCCc2csc3nc(-c4ccc(F)cc4)nn23)c1 | active: 31.6 µM |  |
| O=C(c1nnc(COc2ccc(F)c(F)c2)n1-c1ccccc1)N1CCC[C@@H]1c1cccc(F)c1 | inconclusive: 35.5 µM [cytotoxic, single point] |  |
| c1ccc(CC2=NOC3(CCN(Cc4c[nH]c5ccccc45)CC3)C2)cc1 | inactive |  |
| COc1ccc(CCNC(=O)C2CCc3nnc(CNC(C)=O)n32)cc1 (stereo not drawn) | inactive |  |
| Cc1cccc(NC(=O)N2CCc3c(C(=O)N4CCN(C)CC4)cccc32)c1 | inconclusive: 6.31 µM [cytotoxic, partial curve, poor fit] |  |
| COc1cccc(C(=O)NC2CCN(C(=O)c3ccc(-c4ncccc4C#N)cc3)CC2)c1 |  | inactive: -11.6% [at 12.5 µM] |
| COCCCNC(=O)c1cc2n(n1)CCCN(Cc1ccc(C)cc1)C2=O | inconclusive: 7.08 µM [rising, single point] |  |
| COc1ccc(-c2nc(CN3CCC(C(=O)NCCCN4CCN(c5ccccc5F)CC4)CC3)c(C)o2)cc1OC | inconclusive: 39.8 µM [cytotoxic, single point] |  |
| COc1cccc(CC(=O)Nc2ccc3c(c2)CN(Cc2ccccc2F)C(=O)C(C)O3)c1 (stereo not drawn) | inconclusive: 39.8 µM [cytotoxic, single point] |  |
| CCNC(=O)N[C@@H]1C=C[C@@H](c2c(C)nn(-c3ccc(OC)cc3)c2C)C1 | inconclusive: 22.4 µM [cytotoxic, partial curve, poor fit] |  |
| Cc1ccc(C(=O)Nc2ccc(-c3nc4ccccc4s3)c(O)c2)c(C)c1 | inactive |  |
| COCCNC(=O)C(=O)NCC(c1ccc2c(c1)OCO2)N1CCOCC1 (stereo not drawn) | inconclusive: 22.4 µM [rising, partial curve, poor fit] |  |
